Test results from PubChem BioAssay AID1159614 (National Center for Advancing Translational Sciences (NCATS), 2016).
In all, about 45,000 compounds went through this assay and about 65 (0.1%) were called active. The call rests on the fitted dose curve; in most records, active means well fitted activation curve with a large enough effect; inconclusive means small, poorly fitted or top-dose-only effect; inactive means no such curve, though single readings can be large or run the other way. This is one part of the list.

molecular target: Galactocerebrosidase (Homo sapiens) (UniProt P54803); experiment: A Novel Cell-Based Assay to Identify Small Molecules for B -Galactocerebrosidase; details: 145M-Twi-hGALC-G270D cells (Twitcher mouse brain line with human GALC G270D), HMU-beta-Gal fluorescence, 48 h; series mostly up to 57.5 µM; activation: at the top concentration; further: 0% is about no effect; nearly all actives have a fitted effect of over 65% in size
Procedure, shortened: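 Live 145M-Twi cells (Twitcher mouse brain-derived, GALC-null) stably expressing human GALC-G270D, with a wild-type GALC line, were compound-treated. Residual GALC activity was then read as fluorescence from 0.1 mM final HMU-β-gal at pH 5.2; higher signal means activation.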

Sequence of UniProt P54803 (P54803 whole entry, looked up): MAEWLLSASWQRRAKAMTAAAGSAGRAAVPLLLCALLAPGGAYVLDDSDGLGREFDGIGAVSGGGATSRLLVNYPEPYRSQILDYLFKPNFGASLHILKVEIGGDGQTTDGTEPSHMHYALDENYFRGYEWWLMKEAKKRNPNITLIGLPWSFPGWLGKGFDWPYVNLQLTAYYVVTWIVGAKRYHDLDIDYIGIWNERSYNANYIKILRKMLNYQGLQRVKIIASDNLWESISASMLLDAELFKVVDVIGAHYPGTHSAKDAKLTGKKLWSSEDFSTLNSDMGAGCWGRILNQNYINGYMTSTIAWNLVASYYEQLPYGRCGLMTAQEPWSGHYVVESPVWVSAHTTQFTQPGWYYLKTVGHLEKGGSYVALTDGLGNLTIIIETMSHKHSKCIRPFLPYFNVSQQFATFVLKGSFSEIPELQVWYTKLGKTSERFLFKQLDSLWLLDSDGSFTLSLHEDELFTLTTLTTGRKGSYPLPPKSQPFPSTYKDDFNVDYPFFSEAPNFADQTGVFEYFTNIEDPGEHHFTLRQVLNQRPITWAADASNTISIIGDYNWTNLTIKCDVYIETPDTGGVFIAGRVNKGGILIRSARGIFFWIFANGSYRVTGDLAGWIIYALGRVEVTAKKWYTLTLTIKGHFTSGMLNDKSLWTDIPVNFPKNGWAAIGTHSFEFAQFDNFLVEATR

activation, inactive:
CCCCc1ccc(NC(=O)c2cc3c(=O)n4ccccc4nc3n2C)cc1 -10.3%
COC(=O)Cn1c(=O)c2c(nc3n2CCN3c2cccc(C)c2)n(C)c1=O -10.7%
CCN(CC)S(=O)(=O)c1ccc(NC(=O)[C@H](CSCc2ccccc2)N2Cc3ccccc3C2=O)cc1 -18.7%
COc1ccc(NC(=O)CCCc2nc(-c3ccco3)no2)c(OC)c1 -11.9%
COc1ccc2nc3sc(C(=O)Nc4ccccc4F)cc3cc2c1 -2.36%
Cc1ccc(S(=O)(=O)NCC(c2ccc(N(C)C)cc2)N2CCCC2)cc1 (stereo unspecified) -9%
COc1cc(OC)cc(-c2nc3n(n2)C(c2ccccc2F)C(C(=O)Nc2cccnc2)=C(C)N3)c1 (stereo unspecified) -17%
CCc1ccc(S(=O)(=O)c2cn(C)c3cc(N4CCCCC4C)c(F)cc3c2=O)cc1 (stereo unspecified) -10.6%
CCc1ccc(C2C(C(=O)Nc3ccccc3)=C(C)Nc3c(C(=O)Nc4ccc(C)cc4)cnn32)cc1 (stereo unspecified) -16.3%
CCOC(=O)Cn1c(=O)oc2cc(S(=O)(=O)N3CCN(c4ccc(Cl)cc4)CC3)ccc21 11.6%
Cc1cc(C)cc(NC(=O)C2CCCN(c3nnc(C)c4c(C)n(-c5ccccc5)nc34)C2)c1 (stereo unspecified) -6.34%
O=C(c1ccco1)N(Cc1cccnc1)c1nc2ccc(F)cc2s1 -12.5%
Cc1ccc(-n2c(CCC(=O)O)ccc2-c2cccs2)cc1C -6.5%
O=C(Nc1ccc(C(F)(F)F)cc1)C1CCC(CNS(=O)(=O)c2cccc3nsnc23)CC1 (stereo unspecified) -17.5%
CCOC(=O)C1CCN(C(c2ccccc2)c2c(O)cc(C)n(Cc3ccco3)c2=O)CC1 (stereo unspecified) -1.26%
COc1ccc(OCC(=O)Nc2nnc(S(=O)(=O)N3CCCCCC3)s2)cc1 -16.9%
O=C(CSc1nccn1Cc1ccco1)Nc1cccc(F)c1 -7.21%
COc1cc(C2CC(=O)Nc3c2c(=O)[nH]c2nc4ccccc4n32)ccc1O (stereo unspecified) 8.52%
CCc1nn2c(=O)cc(COC(=O)c3ccccc3NC(=O)COc3ccccc3C)nc2s1 -17.5%
COc1ccc(-c2nn3c(-c4ccc(OC)cc4)nnc3c3ccccc23)cc1 -6.65%
Cc1ccc2c(c1)cc(C(=O)Nc1ccccc1C)n2C -6.99%
CCC(C)NC(=O)c1cc2c(Cl)nc3ccc(C)cc3c2s1 (stereo unspecified) -5.01%
CC1(C)C(=O)N(CC(=O)Nc2ccc(Cl)cc2)c2ccccc21 -18.2%
Cc1nc(N2CCCC2)c2c(C(=O)Nc3cccc(C)c3C)c(C)oc2n1 -7.13%
O=C(Nc1ccc(C(=O)OCc2cc(=O)n3nc(C4CC4)sc3n2)cc1)c1ccc(F)cc1 29.7%
CC(=O)Nc1cccc(NC(=O)Cn2cnc3c2c(=O)n(C)c(=O)n3C)c1 -17.7%
O=C(Nc1cccc(Cl)c1)c1c(NC(=O)C(F)(F)F)sc2c1CCCC2 -16.3%
CCN(CC)c1ccc(NC(=O)C(Cc2ccccc2)NS(=O)(=O)c2ccc(Br)s2)c(C)c1 (stereo unspecified) -12.8%
COc1ccccc1N1CCN(C(=O)Cn2ncc3c(=O)oc4ccccc4c32)CC1 0.947%
C[C@]12CCC(=O)C=C1CC[C@@H]1[C@@H]2[C@@H](O)C[C@@]2(C)[C@H]1CC[C@]2(O)C(=O)COC(=O)CCC(=O)O -8.97%
CCOc1ccccc1N(C)C(=O)Cn1cnc2sc(C)c(S(=O)(=O)N3CCC(C)CC3)c2c1=O -7.37%
COc1ccc(S(=O)(=O)N(CC(=O)NCc2ccccc2OC)c2ccc(C)cc2)cc1 -11.8%
CC(C)(C)NC[C@H](O)COc1nsnc1N1CCOCC1 -5.41%
COc1cc(OC)c(NC(=O)COCc2cc(-c3cccs3)on2)cc1Cl -15%
COc1ccc(CCNCc2c(C(=O)O)c(C)n(Cc3ccccc3C)c2C)c(OC)c1 -12.3%
O=C(Cn1c(=O)n(Cc2ccco2)c(=O)c2oc3ccccc3c21)Nc1ccc(F)cc1F -13.1%
Cc1cn2c(=O)cc(COc3ccc(NC(=O)c4cccc(F)c4)cc3)nc2s1 4.27%
Cc1nn(CCCC(=O)Nc2ccccc2C(F)(F)F)c(=O)c2c1sc1ccccc12 -7.07%
CN(C)CCN(Cc1ccco1)S(=O)(=O)c1cc2c(cc1Cl)NC(=O)CO2 -9.03%
COc1ccccc1CCNC(=O)CCc1c(C)c2cc3c(C)coc3c(C)c2oc1=O -8.73%
O=C(NCCO)C(=O)Nc1c2c(nn1-c1ccc(F)cc1)CSC2 -5.04%
Cn1c(=O)n(C)c2cc(NS(=O)(=O)c3ccccc3)c(NCc3ccccc3)cc21 -15.2%
COc1cccc(NC(=O)Nc2cc(-c3cn4cccnc4n3)ccc2C)c1 -13.1%
CCC(Sc1nnc(C)n2c1cc1occc12)C(=O)Nc1ccccc1F (stereo unspecified) -9.01%
CCN(CC)C(=O)Cn1cc(SCC(=O)Nc2cccc(C)c2)c2ccccc21 -17%
COCc1cc(C)n(CC(=O)Nc2ccc(NC(C)=O)cc2)c(=O)c1C#N -16.8%
CC(C)OCCCN(Cc1ccco1)C(=O)c1cc2c(s1)-c1ccccc1OC2 -9.22%
CC(C)Oc1ccc(CNC(=O)C2CCN(C(=O)c3sccc3-n3cccc3)CC2)cc1 -11%
COc1ccccc1CNC(=O)CN1C(=O)CSc2ccc(S(=O)(=O)N3CCCC3)cc21 -20.6%
Cc1ccc(-c2noc(CNC(=O)c3ccc(C(C)(C)C)cc3)n2)cc1 -11.3%
Cc1ccc(Cl)cc1NC(=O)N1CCN(C)c2ncccc21 -12.4%
Cc1cccc(C(=O)N2CCc3cc(CNC(=O)CCc4ccccc4)ccc32)c1 -6.59%
COc1ccc(N2CCN(c3cc(C)nc4nc(-c5ccc(C)cc5)nn34)CC2)cc1 -3.77%
CC1=C(C#N)C(NC(=O)c2cccc(Cl)c2)(C(F)(F)F)C(=O)N1 (stereo unspecified) -10.5%
Cc1cccc(C)c1-n1ncc(C(=O)Nc2ccc3c(c2)OCCO3)c1C1CCN(C(=O)OC(C)(C)C)CC1 -36.6%
COc1ccc(Nc2c(-c3cc(Br)ccc3O)nc3ncccn23)cc1OC -13.2%
CCc1cc2c(cc3c(=O)n(CC(=O)N4CCN(c5cc(Cl)ccc5C)CC4)ncn32)s1 -8.79%
O=C(CSc1ncc2c(n1)-c1ccccc1N(Cc1ccc(F)cc1)S2(=O)=O)c1ccc(Cl)cc1 -2.89%
CCOCCOC(=O)c1ccc(NC(=O)/C=C/c2ccc(OC)c(OC)c2)cc1 -14%
Cc1ccc(S(=O)(=O)c2cn(C)c3cc(N4CCN(C)CC4)c(F)cc3c2=O)cc1 -4.05%
CNS(=O)(=O)c1ccc(OC)c(-c2nnc3c4ccccc4c(C)nn23)c1 -13.8%
COc1ccccc1N1CCN(S(=O)(=O)c2c(C)sc3ncn(CC(=O)N(C)c4ccc(C(C)C)cc4)c(=O)c23)CC1 -9.98%
Cc1ccc(NCc2cccn2-c2nnc(N3CCC(C(=O)NCc4ccc(OC(C)C)cc4)CC3)s2)cc1 -10.2%
COc1ccc(OC)c(C2CC(=O)c3c([nH]c(C(=O)OC4CCC(C)CC4)c3C)C2)c1 (stereo unspecified) -4.62%
CN1CCN(CCCNC(=O)Cn2c(-c3cccs3)cc3ccccc32)CC1 -4.46%
Cc1ccc2c(c1)sc1nc(=O)n(-c3ccc(Cl)cc3)c(=O)n12 -19.1%
CCOC(=O)c1noc2ncnc(N(CCC(=O)OC)c3ccccc3)c12 -2.33%
CCOC(=O)c1noc2ncnc(Nc3ccc(C)c(F)c3)c12 -12.5%
Cc1ccc(-c2cc(N)n3nc(-c4ccc(C)cc4)cc3n2)cc1 -4.61%
CC(=O)c1ccc(N2CCN(c3nc4c(S(=O)(=O)c5ccccc5)nnn4c4ccc(Cl)cc34)CC2)cc1 -12.6%
COc1ccc(S(=O)(=O)c2cn(C)c3cc(N4CCCCC4)c(F)cc3c2=O)cc1 -9.33%
Cc1c(-c2nsc(NC(=O)c3ccc(Cl)cc3)n2)nnn1-c1ccc(C(C)C)cc1 -24.1%
COc1ccc(N2CCN(CCCNC(=O)C3COc4ccc(OC)cc4C3)CC2)cc1 (stereo unspecified) -6.13%
COc1ccc2c(CNCc3ccc(Cl)cc3)c(C(=O)O)n(Cc3ccccc3C)c2c1 -18.3%
CCc1cccc2c(-c3ccccc3)nc(SCC(=O)Nc3ccccc3)nc12 -15%
O=C(Cn1cc(SCc2ccc(C(F)(F)F)cc2)c2ccccc21)N1CCCCC1 -15.4%
CC(CC(=O)NCc1ccc(Cl)cc1)CC1=NS(=O)(=O)c2ccccc2N1 (stereo unspecified) -18.3%
COc1ccc(-c2cc(C)no2)cc1S(=O)(=O)NCc1ccc(OC(C)C)cc1 0.951%
Cc1cccc2nc(-c3cccnc3)c(Nc3ccc(C(C)C)cc3)n12 -27.8%
Cc1cc(C)cc(NC(=O)CSc2nccn2-c2ccccc2)c1 -18.2%
O=C(NC1CC(=O)N(c2ccccc2)C1)C1CCCCC1 (stereo unspecified) -12.8%
Cc1cc(Br)ccc1NC(=O)c1cc2c(=O)n(C)c3cc(Cl)ccc3c2s1 -18.6%
Cc1cccc(NC(=O)C2CCN(S(=O)(=O)c3cccc4nsnc34)CC2)c1C -6.72%
COc1ccc(NC(=O)C2=C(C)Nc3nc(SCc4ccccc4C)nn3C2c2ccc(Br)cc2)cc1 (stereo unspecified) -11.5%
Cc1cc(C)c2oc(C(=O)N(Cc3ccc(F)cc3)C3CCS(=O)(=O)C3)cc(=O)c2c1 (stereo unspecified) -14.1%
CSc1ccc(CCNc2ncnc3onc(C)c23)cc1 9.9%
COc1ccc(S(=O)(=O)N2CCC(c3ccncc3)CC2)cc1Cl -37.3%
CN(C(=O)c1cc(-c2ccccc2O)on1)c1ccccc1 -13.3%
CCCCOc1c(Cl)cc(C(=O)N(Cc2ccc(C)o2)C2CCS(=O)(=O)C2)cc1Cl (stereo unspecified) -10.6%
COc1ccc(C(CNC(=O)COc2ccc(C)cc2)N2CCCCC2)cc1 (stereo unspecified) -29.5%
CN(C(=O)Cn1c(=O)n(CCCS(=O)(=O)C2CCCCC2)c(=O)c2ccccc21)c1ccccc1 -9.45%
COc1ccccc1NC(=O)c1c(NCc2sccc2C)sc2c1CCCCC2 -19.7%
CCOC(=O)c1c(C)oc2ccc(N(C(=O)Oc3ccccc3)S(=O)(=O)c3ccccc3)cc12 -5.03%
CCN1CCN(C(c2ccc(OC)cc2)c2c(O)cc(C)n(CCOC)c2=O)CC1 (stereo unspecified) -11.9%
CCOc1ccc(/C=C(\C#N)c2nc(-c3cc4ccccc4oc3=O)cs2)c(OCC)c1 1.22%
CCOc1cc(-c2nc(-c3ccc(-c4ccc(C)cc4)nc3OC)no2)cc(OCC)c1OCC -12.7%
